# Where “and” joins values, the source holds several entries; their conditions need not be identical. Equal entries are not always repeated. About 64,000 (15%) of roughly 420,000 compounds were called active. This list was built around the results that the source calls inconclusive (neither active nor inactive); the mix of calls is not that of the screen. The call rests on the fitted dose curve; in most records, active means well fitted inhibition curve with a large enough effect; inconclusive means small, poorly fitted or top-dose-only effect; inactive means flat fitted curve, though single readings scatter. Potencies of inconclusive entries are doubtful fits and often do not repeat.
# Assay: qHTS for Inhibitors of human tyrosyl-DNA phosphodiesterase 1 (TDP1): qHTS in cells in absence of CPT; further: nearly all actives have a fitted effect of over 55% in size
# Conditions: DT40 Tdp1-/- hTDP1 cells, no CPT, ATP luminescence, 48 h; activity change, negative = growth inhibition: at 46.2 µM (top of the series) unless noted
# How it was run: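 Growth kinetics read by CellTiter-Glo luminescence after ≥48 hr at 37 °C. Cells: DT40 Tdp1-/- stably carrying human TDP1, 400 per well, compound exposure in the absence of CPT (DMSO vehicle).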
# On the % scale 0 is the no-effect control and ±100 the full control effect; potency means the concentration at half of the fitted maximal effect; tags describe the fitted curve by direction and shape.
Structure (SMILES),Potency,"activity change, negative = growth inhibition"
O=C(/C=C/c1cccc([N+](=O)[O-])c1)Nc1cc(C(=O)O)cc(C(=O)O)c1,"inconclusive: 29.1 µM [inhibitor, single point]",
CCCc1nnc(NC(=O)CCC(=O)N2CCN(c3ccccc3)CC2)s1,,inactive: -5.39%
Cc1ccc(C(=O)CC2(O)C(=O)N(C)c3ccccc32)s1 (stereo not drawn),,inactive: 0.585%
CCC(C(=O)Nc1ccc(S(=O)(=O)N(C)C2CCN(C)CC2)cc1)c1ccccc1 (stereo not drawn),"inconclusive: 29.1 µM [inhibitor, single point]",
O=C(/C=C/c1cccc([N+](=O)[O-])c1)NCCSCc1cccc(Cl)c1,"inconclusive: 14.6 µM [inhibitor, single point]",
COc1cccc(Sc2ccccc2CN(C)C)c1,,inconclusive: -30.9% [inhibitor]
Cc1c(C(=O)c2ccc(N(C)C)cc2)c2ccccn2c1CCC#N,"inconclusive: 14.6 µM [inhibitor, partial curve]",
Cc1onc(-c2ccccc2)c1C(=O)Nc1sc2c(c1C#N)CCC(C)C2 (stereo not drawn),"inconclusive: 20.6 µM [inhibitor, single point]",
CN(c1ccccc1)S(=O)(=O)c1ccc(NC(=O)COc2ccccc2)cc1,"inconclusive: 29.1 µM [inhibitor, single point]",
CCOc1ccccc1NC(=O)C(C)Sc1nc2c(c(=O)[nH]1)CCCC2 (stereo not drawn),"inconclusive: 29.1 µM [inhibitor, single point]",
CC(=O)N1c2ccc(S(=O)(=O)N3CCC(C(=O)N4CC(C)CC(C)C4)CC3)cc2CC1C (stereo not drawn),"inconclusive: 20.6 µM [inhibitor, single point]",
CCOc1ccccc1CN1CCCC(c2nc(C)ncc2-c2ccc(F)cc2)C1 (stereo not drawn),active: 18.4 µM,
COc1ccccc1NS(=O)(=O)c1cc(C(=O)NCC(c2ccc(F)cc2)N2CCOCC2)ccc1C (stereo not drawn),"inconclusive: 29.1 µM [inhibitor, single point]",
CC(=O)c1cccc(OCc2cc(C(=O)N(C)Cc3cnccn3)no2)c1,,inactive: -3.68%
COc1ccc(-c2cc(C(=O)Nc3c(C)nn(Cc4ccc(F)cc4)c3C)no2)cc1OC,"inconclusive: 18.4 µM [inhibitor, single point]",
CC1=CC(C)(C)N(C(=O)CSc2nnc(N)s2)c2cc(C)c(C)cc21,"inconclusive: 29.1 µM [inhibitor, single point]",
COc1ccc2c(c1OC)C(C1c3c(cc4c(c3OC)OCO4)CCN1C)OC2=O (stereo not drawn),"inconclusive: 23.1 µM [inhibitor, single point]",
Clc1cccc(Cc2c(-c3ccco3)nc3c4ccccc4ccn23)c1,"inconclusive: 29.1 µM [inhibitor, single point]",
CCOC(=O)c1ccccc1NC(=O)CCc1c(C)nc2ncnn2c1C,,inactive: -0.374%
N#CCCN=C(NS(=O)(=O)c1ccccc1)c1ccccc1,,inactive: -4.42%
CCOCCN1CCN(c2c(CC)c(C)nc3cc(-c4cc(OC)cc(OC)c4)nn23)CC1,active: 14.6 µM,
CCC(C(=O)NCCC(C)C)n1ccc2cc(S(=O)(=O)N3CCCCC3)ccc21 (stereo not drawn),active: 8.2 µM,
CN(C)CCCNC(=O)c1ccc(Cl)c(S(=O)(=O)N2CCCCCC2)c1,"inconclusive: 29.1 µM [inhibitor, single point]",

Structure (SMILES),Potency,"activity change, negative = growth inhibition"
CNC(=O)c1ccc2nc(-c3ccccc3)c(-c3ccccc3)nc2c1,"inconclusive: 12.6 µM [inhibitor, partial curve]",
Cc1ccccc1C(=O)OCC(=O)Nc1cccc(S(=O)(=O)N2CCCCC2)c1,"inconclusive: 29.1 µM [inhibitor, single point]",
Cc1ccc(NCc2nnc3n2CCCCC3)cc1Cl,,inactive: -9.69%
Cc1ccc(NC(=S)NNc2ncc(C(F)(F)F)cc2Cl)c(C)c1,"inconclusive: 18.4 µM [inhibitor, single point]",
Cc1oc(-c2ccccc2)nc1CNC(=O)Nc1ccccc1,"inconclusive: 25.9 µM [inhibitor, single point]",
O=C(NC1CCCCC1)c1cc(-c2ccccc2Cl)on1,"inconclusive: 25.9 µM [inhibitor, single point]",
Cc1ccc(-c2nn3c(C)nnc3c3ccccc23)cc1S(=O)(=O)NC(C)c1ccccc1 (stereo not drawn),active: 18.4 µM,
CC1O[C@H](OC2C(COC3OC(CO)C(O)[C@H](O)C3O)OC(OC3CC[C@]4(C)C(CC[C@@]5(C)[C@@H]4C=C[C@]46OC[C@@]7(CCC(C)(C)C[C@H]74)C(O)C[C@@]56C)C3(C)C)C(O)C2O)C(O)C(O)C1O (stereo partly drawn),,inactive: 7.51%
CCOC(=O)c1c(-c2ccccc2)c[nH]c1C,"inconclusive: 0.82 µM [inhibitor, full curve, poor fit]",
CCn1nc(-c2ccccc2)c(-c2ccccc2)c(C(=O)OCCOC)c1=O,"inconclusive: 25.9 µM [inhibitor, single point]",
CN1C(C(=O)Nc2ccc(F)cc2F)=CC(c2cccs2)=NS1(=O)=O,"inconclusive: 29.1 µM [inhibitor, single point]",inconclusive: -31.5% [inhibitor]
COc1cccc(OCCOc2ccccc2OC(C)C)c1,"inconclusive: 25.9 µM [inhibitor, single point]",
CCC(=O)N1CCc2cc(S(=O)(=O)Nc3ccccc3C)ccc21,"inconclusive: 14.6 µM [inhibitor, partial curve]",
COc1cc(/C=N/NC(=O)CN2CCCCC2)ccc1OCc1ccc(Br)cc1,"inconclusive: 23.1 µM [inhibitor, single point]",
COc1ccc([C@H]2C[C@H](n3cc(COC(=O)c4ccccc4)nn3)[C@@H](O)CN2Cc2cccs2)cc1,active: 18.4 µM,
CC(C)N(C(=O)Cn1cc(S(=O)(=O)Cc2ccc(C(F)(F)F)cc2)c2ccccc21)C(C)C,"inconclusive: 20.6 µM [inhibitor, single point]",
C/C(=N\NC(=S)NC1CCCCC1)c1ccc(O)cc1,active: 16.4 µM,
O=C(NCCn1cc(SCc2ccc(F)cc2)c2ccccc21)c1ccccc1F,active: 16.4 µM,
CCn1nc(NC(=O)c2ccco2)c2cc3ccccc3nc21,"inconclusive: 29.1 µM [inhibitor, single point]",
O=C(Nc1ccnn1C1CCN(Cc2ccc3nonc3c2)CC1)c1cccc(F)c1,,inactive: -20.2%
Cc1ccc(Nc2c(-c3ccccc3O)nc3ccc(Br)cn23)cc1,,inactive: -1.47%
O=C(CSc1nccn(-c2ccc3c(c2)OCCO3)c1=O)Nc1ccccc1,"inconclusive: 20.6 µM [inhibitor, single point]",
CC#CCOC(=O)c1c(C)nc2sc3c(c2c1N)CCC(O)C3 (stereo not drawn),active: 9.2 µM,

Structure (SMILES),Potency,"activity change, negative = growth inhibition"
COc1ccc2sc(-c3ccccc3OC)c(-c3ccc4c(c3)OCCO4)c2c1,"inconclusive: 29.1 µM [inhibitor, single point]",
CC1CCCC(C)N1C(=O)CSc1ccc(-c2ccc3c(c2)OCCO3)nn1 (stereo not drawn),"inconclusive: 20.6 µM [inhibitor, single point]",
CCN(CC)CCNC(=O)c1ccc2c(c1NCCO)C(=O)c1ccccc1C2=O,active: 14.6 µM,
CCOc1ccc(S(=O)(=O)N2CCN(c3ccccc3)CC2)cc1C(N)=O,,inactive: -4.01%
COc1ccc(C(=O)Nc2ccc3c(c2)OCO3)cc1S(=O)(=O)N1CCOCC1,"inconclusive: 13 µM [inhibitor, partial curve]",
COc1ccc(NC(=O)c2cn(-c3ccccc3)nc2SC)cc1,"inconclusive: 25.9 µM [inhibitor, single point]",
Cc1ccc(CN(C(=O)COc2ccc(C)c(C)c2)C2CCS(=O)(=O)C2)o1 (stereo not drawn),"inconclusive: 14.6 µM [inhibitor, single point] and inconclusive: 16.4 µM [inhibitor, single point]",
CC(=O)Nc1sc(N/N=C\c2ccco2)nc1-c1cccs1,"inconclusive: 29.1 µM [inhibitor, single point]",
Cc1cc(NC(=O)CN2CCC(C)CC2)no1,,inactive: -12.9%
COc1ccc(NC(=O)Nc2nnc(C(C)(C)C)s2)cc1,"inconclusive: 29.1 µM [inhibitor, single point]",
CC(C)N1CCCC(C)(C(=O)Nc2ccccc2)C1 (stereo not drawn),,inactive: 2.86%
Cn1c(=O)[nH]c(=O)c2c1nc(N1CCCCC1)n2CCCSc1nnnn1-c1ccccc1,"inconclusive: 20.6 µM [inhibitor, single point]",
CCOC(=O)N1CCN(c2c(N3CCN(c4ccc(F)cc4)CC3)c(=O)c2=O)CC1,"inconclusive: 25.9 µM [inhibitor, single point]",
CC(=O)OCOC(c1ccc2ccccc2c1)P(=O)(OCOC(C)=O)OCOC(C)=O (stereo not drawn),"inconclusive: 18.4 µM [inhibitor, single point]",
COc1ccc2c(Sc3ccc(Cl)cc3)c(C(=O)NCCCN3CCCCC3)[nH]c2c1,active: 23.1 µM,
O=C(CP(=O)(c1ccccc1)c1ccccc1)Nc1cccc(CP(=O)(c2ccccc2)c2ccccc2)c1,active: 23.1 µM,
CC(C)CC(=O)NC(NC(=S)Nc1ccccc1)C(Cl)(Cl)Cl (stereo not drawn),"inconclusive: 25.9 µM [inhibitor, single point]",
CCCCOc1ccc(C(=S)N2CCC(C(N)=O)CC2)cc1,"inconclusive: 14.6 µM [inhibitor, single point]",
CCOc1ccc(CCNC(=O)C2CCN(S(=O)(=O)N3CCC(C)CC3)CC2)cc1OCC,"inconclusive: 23.1 µM [inhibitor, single point]",
Cc1occc1C(=O)Nc1cccc(S(=O)(=O)N2CCOCC2)c1,,inactive: -21.2%
CC(C)(C)c1ccc(Oc2cccc(C3CC(=O)C(C4NCCc5ccccc54)C(=O)C3n3cncn3)c2)cc1 (stereo not drawn),,inactive: 6.87%

# Reference: PubChem BioAssay AID686978 (National Center for Advancing Translational Sciences (NCATS), 2013)
